Data as given in the supplement of paper PMC10369915.
The other results are listed elsewhere or left out. Cut-off read from the data, not from the text of the source: active = 3.2 or more and inactive = the rest. Most of these values are background signal.

Columns and labels:
Assay in all cases: enrichment score (SH2-bound / input frequency) (ratio); bacterial display of known human phosphotyrosine sites (pTyr-Var adds point mutants) read by sequencing; higher = stronger binding; tyrosines were phosphorylated by kinases first
Settings in all cases: peptide library: Human pTyr
SHP2 C-SH2 domain E139D = target: SHP2 C-SH2 domain E139D
[1] = target: SHP2 C-SH2 domain wild-type
SHP2 N-SH2 domain L43F = target: SHP2 N-SH2 domain L43F
SHP2 N-SH2 domain T42A = target: SHP2 N-SH2 domain T42A
SHP2 N-SH2 domain T52S = target: SHP2 N-SH2 domain T52S
[2] = target: SHP2 N-SH2 domain wild-type

Measured: enrichment score
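Note: displayed peptides selected on beads carrying the immobilized SH2 domain, with library peptides lacking any tyrosine serving as negative controls.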

B1: KCND3_HUMAN_108 (peptide)
chain: GKLHYPRYECISAYD
inactive: SHP2 C-SH2 domain E139D 1.54 | [1] 1.56 | SHP2 N-SH2 domain L43F 1.63 | SHP2 N-SH2 domain T42A 1.48 | SHP2 N-SH2 domain T52S 1.77 | [2] 2

B2: KCNJ1_HUMAN_337 (peptide)
chain: SKTKEGKYRVDFHNF
inactive: SHP2 C-SH2 domain E139D 1.74 | [1] 2.05 | SHP2 N-SH2 domain L43F 1.53 | SHP2 N-SH2 domain T42A 1.62 | SHP2 N-SH2 domain T52S 1.48 | [2] 1.89

B3: KCNA3_HUMAN_162 (peptide)
chain: SFDAILYYYQSGGRI
inactive: SHP2 C-SH2 domain E139D 1.96 | [1] 1.78 | SHP2 N-SH2 domain L43F 1.78 | SHP2 N-SH2 domain T42A 1.8 | SHP2 N-SH2 domain T52S 1.75 | [2] 2.14

B4: KDM3A_HUMAN_1114 (peptide)
chain: ITPEDRKYGTTNLHL
inactive: SHP2 C-SH2 domain E139D 0.775 | [1] 0.705 | SHP2 N-SH2 domain L43F 0.755 | SHP2 N-SH2 domain T42A 0.747 | SHP2 N-SH2 domain T52S 0.704 | [2] 0.838

B5: KAPCB_HUMAN_69_YA (peptide)
chain: KHKATEQYAAMKILD
inactive: SHP2 C-SH2 domain E139D 1.95 | [1] 2.11 | SHP2 N-SH2 domain L43F 1.92 | SHP2 N-SH2 domain T42A 1.69 | SHP2 N-SH2 domain T52S 2.39 | [2] 2.73

B6: KCND3_HUMAN_136 (peptide)
chain: GDCCYEEYKDRKREN
inactive: SHP2 C-SH2 domain E139D 0.689 | [1] 0.618 | SHP2 N-SH2 domain L43F 0.753 | SHP2 N-SH2 domain T42A 0.682 | SHP2 N-SH2 domain T52S 0.701 | [2] 0.629

B7: KAPCA_HUMAN_331 (peptide)
chain: DTSNFDDYEEEEIRV
inactive: SHP2 C-SH2 domain E139D 1.27 | [1] 1.16 | SHP2 N-SH2 domain L43F 1.2 | SHP2 N-SH2 domain T42A 1.1 | SHP2 N-SH2 domain T52S 1.5 | [2] 1.57

B8: KCNJ4_HUMAN_234_YA (peptide)
chain: AMTQEGEYLPLDQRD
inactive: SHP2 C-SH2 domain E139D 0.673 | [1] 0.662 | SHP2 N-SH2 domain L43F 0.779 | SHP2 N-SH2 domain T42A 0.722 | SHP2 N-SH2 domain T52S 0.847 | [2] 0.868

B9: ALK_HUMAN_1278_YA (peptide)
chain: FGMARDIYRASAARK
inactive: SHP2 C-SH2 domain E139D 0.997 | [1] 0.752 | SHP2 N-SH2 domain L43F 0.754 | SHP2 N-SH2 domain T42A 0.854 | SHP2 N-SH2 domain T52S 0.975 | [2] 0.872

B10: KDM5A_HUMAN_1595 (peptide)
chain: VLDIPSKYDWSGAEE
inactive: SHP2 C-SH2 domain E139D 1.03 | [1] 0.899 | SHP2 N-SH2 domain L43F 0.658 | SHP2 N-SH2 domain T42A 0.843 | SHP2 N-SH2 domain T52S 0.808 | [2] 0.785

B11: KHDR1_HUMAN_435_YA (peptide)
chain: ARPVKGAYREHPAGR
inactive: SHP2 C-SH2 domain E139D 2.27 | [1] 2.47 | SHP2 N-SH2 domain L43F 2.41 | SHP2 N-SH2 domain T42A 2.6 | SHP2 N-SH2 domain T52S 2.28 | [2] 3.11

B12: KDM1A_HUMAN_135 (peptide)
chain: ANLSEDEYYSEEERN
inactive: SHP2 C-SH2 domain E139D 1.38 | [1] 1.08 | SHP2 N-SH2 domain L43F 0.861 | SHP2 N-SH2 domain T42A 1.26 | SHP2 N-SH2 domain T52S 1.25 | [2] 1.04

B13: KCC2B_HUMAN_17_YA (peptide)
chain: FTDEAQLYEDIGKGA
inactive: SHP2 C-SH2 domain E139D 0.807 | [1] 0.753 | SHP2 N-SH2 domain L43F 0.949 | SHP2 N-SH2 domain T42A 0.808 | SHP2 N-SH2 domain T52S 0.676 | [2] 0.707

B14: KHDR1_HUMAN_435 (peptide)
chain: ARPVKGAYREHPYGR
inactive: SHP2 C-SH2 domain E139D 2.49 | [1] 1.98 | SHP2 N-SH2 domain L43F 2.12 | SHP2 N-SH2 domain T42A 1.74 | SHP2 N-SH2 domain T52S 1.83 | [2] 2.14

B15: KCNA3_HUMAN_499 (peptide)
chain: EGEEQSQYMHVGSCQ
inactive: SHP2 C-SH2 domain E139D 1.03 | [1] 0.815 | SHP2 N-SH2 domain L43F 0.886 | SHP2 N-SH2 domain T42A 1.17 | SHP2 N-SH2 domain T52S 1.1 | [2] 1.18

B16: KCNA3_HUMAN_163_YA (peptide)
chain: FDAILAAYQSGGRIR
inactive: SHP2 C-SH2 domain E139D 0.707 | [1] 0.913 | SHP2 N-SH2 domain L43F 0.734 | SHP2 N-SH2 domain T42A 0.893 | SHP2 N-SH2 domain T52S 0.763 | [2] 0.864

B17: KCC2A_HUMAN_13 (peptide)
chain: CTRFTEEYQLFEELG
inactive: SHP2 C-SH2 domain E139D 1.2 | [1] 1.48 | SHP2 N-SH2 domain L43F 1.21 | SHP2 N-SH2 domain T42A 1.27 | SHP2 N-SH2 domain T52S 1.38 | [2] 1.64

B18: KCRS_HUMAN_255 (peptide)
chain: ARGIWHNYDKTFLIW
inactive: SHP2 C-SH2 domain E139D 1.41 | [1] 2.5 | SHP2 N-SH2 domain L43F 1.33 | SHP2 N-SH2 domain T42A 1.51 | SHP2 N-SH2 domain T52S 1.89 | [2] 1.96
